Some of the results follow.
Each sequence was assayed on PfHDP1 homeodomain (GST-tagged) (assay: gcPBM binding intensity (ln(normalized median fluorescence intensity)); higher = stronger DNA binding).
Summary of the method: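 An Agilent 4 × 180k array of primer-extended double-stranded 36-bp intergenic genomic probes, with negative controls, was incubated for 1 h with GST-tagged P. falciparum DNA-binding domains expressed in E. coli. Alexa488 anti-GST antibody detected bound protein, scanned at 488 nm. Binding intensity is the highest Masliner-normalised natural-log median intensity across replicate spots of either probe orientation.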

Sequence	gcPBM binding intensity (ln)
ATATTTTGGGGACTTTTTAAAAAAGAAGTATTAAAA [CACACA_negctrl_site1228]	6.6
GTAAATATATAAACATGTACATATATAAATATATAA [XGTACX_site7262]	6.3
TGGCAAAATAGGCACACACACATATACCTATAGATT [CACACA_site7168]	6.68
GTTTACATAGATAACTGTACGCAATGATATTAGACA [XGTACX_site1320]	6.14
TATAAGAATAAAAAGGGTACATAAAATAATAATATA [XGTACX_site2355]	6.56
CAAAAAAAATAAAACACACACACAAAAAAATAAAAA [CACACA_site466]	6.78
TAATAATAGTACTGACATCGAAATATTATTAAAAAT [CACACA_negctrl_site255]	6.24
GATAATTTTTTTCTCACACACAAATATTTTAATCAT [CACACA_site3666]	6.63
AAATATATTATATCATATATTAAAGCATATATTAAA [CACACA_negctrl_site1624]	6.1
TAGATACTTGTCATGGGTACATATCGTACCTTTTGG [XGTACX_site6781]	6.36
CTCTTCTATATATAAGCATGCATTCATAATAATTTA [TGCATGCA_site679]	7.04
TTTATATGATATATTACACACAAAAAAAAAAAAAAA [CACACA_site3549]	6.27
CATTATGTCGTAAATACACACATACCTATACATACA [CACACA_site6763]	6.79
AATATATAGCTAAAAACACACAAATATATACGCATA [CACACA_site3608]	6.54
CCATAAGATATATGTAGTACATATTATATATATATA [XGTACX_site2104]	8.62
TATACACATATATAAACACACAAAAAAAAAAAAAAA [CACACA_site7041]	6.47
ATTTCATTTTATAAGTGTACAATAAAAAAAAAAAAA [XGTACX_site8677]	6.51
GTTTACATTAAAAATTGTACTCTGTATGAATAATAT [XGTACX_site80]	6.25
CTTAAAAAAACCTTAACACACATAAACTCTAATTTA [CACACA_site7430]	6.13
GATGATACAAAGTAATGTACATAAATACACATATTG [XGTACX_site3177]	6.59
ATATAAACAGAAAATAGTACTTTATATTGAAAAAAA [XGTACX_site7183]	6.36
AAATTTGATATAAAAAGTACAAAATGTTCCTCAGCT [XGTACX_site809]	6.15

Sequence	gcPBM binding intensity (ln)
AATTTATAATTATAGAGTACATATTTTTAATATATA [XGTACX_site2566]	6.14
ACAGCTACCAGATACTGTACTTTTCTCCAGACTGCA [XGTACX_site2541]	6.07
ATGTGATATAAGTACACACACATATGTATTTATAAC [CACACA_site6942]	6.57
ATATACATAATCTTCTTGCACTTTTTTTTTTTTTTT [GTGCAC_site9410]	7.25
TATATTTTGTTCTTTCCACACACAAATACATATATT [CACACA_site9348]	7.11
ATATACACTTAATTTTTTATAAAAAAAAATTTATAT [CACACA_negctrl_site498]	6.38
GTAATAATTTTTTGTAGTACACAAAAATTCATATTT [XGTACX_site2699]	6.86
TTAAAATTAAAAATGCGTACACATATACATAAAAAA [XGTACX_site1915]	6.6
ATTAATTTTAATAAAGGTACACGTAGTTTTTTATTA [XGTACX_site7868]	6.03
AACAAAACCTTATATGTACACACATATACATCACAC [CACACA_site9037]	6.88
TATATATATATATATTGTACTGAACGTTTTTTTTTG [XGTACX_site8060]	9.05
GCTTAATGTCATATATCACACATGAAAATATATATA [CACACA_site5089]	6.74
TTTTGATTTCCTATTGCACACTTTTTTTAAGTTTAT [CACACA_site1056]	9.79
TGCATATACGCAAGCACACATATATATATATATATA [CACACA_site1069]	9.53
TATATATATATATAATGTACATATAATATATTTATT [XGTACX_site7892]	9.09
TAAATATATTAATACACACACGATATGTACAAAAAA [CACACA_site540]	6.53
GGCAATACATAATAATGTACATAATTATATAATATT [XGTACX_site3739]	6.46
TATATCTGTTTATATTGTACACATATATATATATAT [XGTACX_site714]	9.3
TACGTATTTTAATATTTACACACTTATTTTTTATAT [CACACA_site7924]	6.65
GGACAACAAACAAACACACACAAAAAAAAAATAAAA [CACACA_site3791]	6.59
AATTTTTCAAATTAATGTACTTGTTATAAATTGTAA [XGTACX_site5428]	6.19
TTGTTTCTTTTTTTTTGTACATATATATTGTATATT [XGTACX_site7602]	7.07

Sequence	gcPBM binding intensity (ln)
TATATAATATATATATGTACATATATATATGTTTTT [XGTACX_site3347]	6.44
TATACATAAAACAGTTCACACATTGTATGAATATAT [CACACA_site4751]	6.52
TACAAACACCCATATACACACAAAAAAAAAATAAAA [CACACA_site5421]	6.53
AGAAAAACTTATATGATACACACGATAAACAAAATA [CACACA_site1038]	6.55
ATATTTTAAAATAATACACACAAAATGATTCTTAAT [CACACA_site2930]	7.01
AACAATAAATTATTATGTACACATATATTATATATA [XGTACX_site4629]	6.47
TATATTATATAATTTTAACACACAAGAATATAAACT [CACACA_site8378]	6.75
ATAAGTATTACTAGTACACACAAGTTGTTAATCCTT [CACACA_site3324]	6.9
AAACTTCAAAAAGAGCACTTGAATTTTTTTTTTTTT [TGCATGCA_negctrl_site133]	6.1
AAAAAGAACACAAAAAGTACAAAAATTATAATGATA [XGTACX_site2676]	6.47
CATAAATACAAATATACACACATATTTATATTTATA [CACACA_site7277]	6.69
AATATGTTTTACGTCTCACACATATAGGTTTATATT [CACACA_site4713]	6.71
ATTATACTTTCCATTCGTACATATATAAATAAATAA [XGTACX_site6245]	7.19
ATATATAGATGTGAATTATTTATATTATCTATTCTT [CACACA_negctrl_site518]	6.07
GTATTTATGTGTTTGGTGCAAGGGAGAATTTTTTTT	8.82
TCAAAGTAAAACAGGACATGCACAGAACATCCTGCC [TGCATGCA_site2]	7.01
TACACAAAGTTACATACACACTAATATTTACACCAT [CACACA_site6602]	6.83
TAAAGAAAAATATAAAGTACAAAAATAAAAAAAATA [XGTACX_site8226]	6.74
AAAAAAAAAACATACACACACATATAGATTTATATG [CACACA_site6847]	6.56
ATTTATAAAATATAATTACATTTTTAAATAATAAAA [GTGCAC_negctrl_site43]	6.18
CTTATGTGCATACCTACACACTTACCTATATTTATA [CACACA_site7411]	9.67
TTACGATTTAAAATGGGTACATATATATGAAAAAAA [XGTACX_site545]	6.72

Sequence	gcPBM binding intensity (ln)
ATATAATCTGAGTGCACACAAATAAATAAACATACA [CACACA_site422]	10.2
TTTTTTTTGTATTTTTCACACACACCGAAGTAAACA [CACACA_site8575]	6.91
TAAAAGGATGCATATACACACATATAGATTTATATA [CACACA_site7336]	6.47
TTAAATTCGTCATTTTAAAATAATACAAAAGTTCAA [CACACA_negctrl_site19]	6.31
TTTTTCCTTATTAATACACACATTCACCTTTTAAAT [CACACA_site479]	7.62
AGTTGCATACATTGAAGTACAGAACATTTATATATA [XGTACX_site240]	6.55
TTTTTGTATGCTTCCCGACTACATTATGCCATAAAT [CACACA_negctrl_site136]	7.21
AAAAAAAAAAAAAAAAAAAAAAAAAAATACATATGT [XGTACX_negctrl_site95]	7.17
GATTATATATGAAAATGTACAAATATATATATATAT [XGTACX_site5963]	9.23
TCACTAAACCATTAGAGTACTTGACATATAATGAGC [XGTACX_site3272]	6.17
TATATATAAAAAACATGTACACAAATTTACATACAT [XGTACX_site4777]	6.25
AAGAGTTAAAAAAATACACACATATATATTTTTTTA [CACACA_site1980]	6.57
CATAATTATGCAATTGCACACAACTATCATTTTTTT [CACACA_site2997]	10.1
TCATTCATATGTTACACACACACACCCACATAAAAA [CACACA_site3245]	7.04
AAACCAAGGCACAATAATTAAATAAATAAAATCATG [GTGCAC_negctrl_site574]	6.16
ATATAATTTTTCAAGTGTACTTTTTTTTTTTAACAT [XGTACX_site3050]	6.42
ATTTATATATATATAGGTACACATATTTATATATAA [XGTACX_site8487]	6.23
AATATAAATAAAAACACACACACACGGATATTTATA [CACACA_site7134]	7.15
CACACAACTATCAAGGTGCTAAAATGAAATAATATA [GTGCAC_site9871]	6.65
TTGTATCATATATTATGTACATATTTATTTATTATC [XGTACX_site7723]	6.34
CCCATGTAATATTAAACACACACTCATATAACACAA [CACACA_site7906]	6.78
ATATTTAAATATATTTATATATATAAAAAAAAATAT [GTGCAC_negctrl_site312]	6.71

Reference: the supplement of paper PMC11417369
